Data from PubChem BioAssay AID652104 (National Center for Advancing Translational Sciences (NCATS), 2013).
The campaign covered roughly 410,000 compounds. About 7,200 (1.8%) were called active. Inconclusive results, whose numbers are uncertain, are shown with a selection of clear calls. Calls come from the whole dose curve; as a rule, active = well fitted activation curve with a large enough effect; inconclusive = small, poorly fitted or top-dose-only effect, or another doubt; inactive = no such curve, though single readings can be large or run the other way. No potency is given beside an inconclusive call; the fits are too rough.

Experiment: qHTS of TDP-43 Inhibitors; note: nearly all actives have a fitted effect of over 50% in size; for growth rescue (activation): % of control where 0% means no effect
Conditions: TDP-43 expressing yeast growth rescue, BacTiter-Glo, 24 h; growth rescue (activation): at 46.1 µM (top of the series) unless noted
Procedure, shortened: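 Readout is BacTiter-Glo luminescence of cell growth, so inhibitors register as activators. TDP-43-expressing yeast at OD600=0.02 in galactose medium, after raffinose pregrowth to mid-log, were incubated with compound for 24 hr at 30 deg C.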
Potency is the fitted concentration of half-maximal effect; tags give direction and shape of the fitted curve.

Row | SMILES | Potency | growth rescue (activation)
1 | O=C(COCc1cc(-c2cccs2)on1)NC1CCCCC1 | inconclusive [activator, single point] | –
2 | O=C(COC(=O)C1CCN(c2ccc(C(F)(F)F)cn2)CC1)Nc1cccc(F)c1 | inconclusive [activator, single point] | –
3 | Cc1nn(-c2ccccc2)c(Cl)c1/C=N/NC(=O)c1ccccc1F | inconclusive [activator, partial curve] | –
4 | Cn1nnc(NC(=S)NC(=O)c2cc(Cl)ccc2Cl)n1 | inconclusive [activator, partial curve] | –
5 | CCOc1ccccc1NC(=O)CCCc1nc(-c2ccccc2Cl)no1 | inconclusive [activator, single point] | –
6 | COc1cccc2c1C(CCCC(=O)O)CCC2 (configuration not stated) | inconclusive [activator, single point] | –
7 | Cc1cccc(N2CCN(C(=O)c3nn(C)c4c3CS(=O)(=O)c3ccccc3-4)CC2)c1C | inconclusive [activator, single point] | –
8 | O=C(Nc1ccc(Br)cc1)c1csc(-c2ccncc2)n1 | inconclusive [activator, partial curve] | –
9 | COc1ccc(NC(=O)c2c(NC(=O)C(F)(F)F)sc3c2CCCCC3)cc1 | inconclusive [activator, full curve] | –
10 | N=C1/C(=C\c2ccc(OC(=O)c3ccccc3)cc2)C(=O)N=C2SC(N3CCOCC3)=NN12 | inconclusive [activator, single point] | –
11 | COc1ccc(CN2CCc3c(c(=O)n4ncc(C(=O)N5CCN(c6ccccc6F)CC5)c4n3C)C2)cc1 | – | inactive: 22.1%
12 | Cc1cccc(CN2CCN(C3CN(Cc4ccc(F)cc4)S(=O)(=O)C3)CC2)c1 (configuration not stated) | inconclusive [activator, full curve, poor fit] | –
13 | CCOC(=O)/C=C/C(=O)OCC(=O)Nc1cccc(Br)c1 | inconclusive [activator, single point] | –
14 | CC(=O)c1cccc(NC(=S)NCCCCc2ccccc2)c1 | inconclusive [activator, single point] | –
15 | CCN(C(=O)CCc1nc(-c2ccc(C)cc2)no1)c1cccc(C(F)(F)F)c1 | inconclusive [activator, partial curve, poor fit] | –
16 | CCOc1ccccc1NC(=O)CSc1ccccc1 | active: 14.1 µM | –
17 | Nc1ccc(-c2nc(-c3ccccc3)nc3ccccc23)cc1 | inconclusive [activator, single point] | –
18 | COc1cccc2cc(C(=O)Nc3ccc(CC(=O)O)cc3)c(=O)oc12 | – | inactive: 24.9%
19 | Cc1ccccc1N1C(=O)c2ccccc2C1O (configuration not stated) | – | inactive: 2.07%
20 | O=C(Nc1ccccc1Cl)ON=C1c2ccccc2-c2ccccc21 | inconclusive [activator, single point] | –
21 | CC/C(C)=N/Nc1cccc([N+](=O)[O-])c1 | inconclusive [activator, full curve] | –
22 | COc1ccc(NC(=O)c2ccc([N+](=O)[O-])s2)c([N+](=O)[O-])c1 | – | inactive: 21.4%
23 | CCCOc1ccc(CNC(=O)C2CCN(c3nnc(N4CCCC4=O)s3)CC2)cc1 | – | inactive: -9.96%
24 | CC1CN(C(=O)NCc2ccccc2)c2cc(Cl)ccc2O1 (configuration not stated) | inconclusive [activator, partial curve] | –

Row | SMILES | Potency | growth rescue (activation)
25 | O=c1cnnc(Nc2ccccc2)[nH]1 | – | inactive: -16.7%
26 | Cc1nc2ccc(C(=O)N/N=C/c3cc([N+](=O)[O-])ccc3O)cc2[nH]1 | inconclusive [activator, partial curve] | –
27 | CCCCCCCCC(=O)Nc1cc(C)ccc1OC | – | inactive: 7.25%
28 | CCn1c2c(c(=O)n3ncc(C(=O)Nc4cc(Cl)ccc4OC)c13)CN(Cc1ccc(OC)cc1)CC2 | – | inactive: 25.7%
29 | O=C(Nc1cc(Cl)ccc1Oc1ccccc1)C1=COCCO1 | inconclusive [activator, single point] | –
30 | O=C(Nc1nccs1)c1ccc(-c2ccc(Cl)cc2)o1 | inconclusive [activator, partial curve] | –
31 | Cc1cccc(CSc2nc3c(sc4ccccc43)c(=O)n2CCC(=O)NC(C)C)c1 | – | inactive: -17.5%
32 | CC(=O)N1c2ccc(S(=O)(=O)NCCC(=O)N3CCCC(C)C3)cc2CC1C (configuration not stated) | inconclusive [activator, single point] | –
33 | O=C(NCCc1ccccc1)c1cnc2ccccc2n1 | inconclusive [activator, partial curve] | –
34 | COc1nc(NCc2ccco2)nc(N2CCC(C)CC2)n1 | inconclusive [activator, partial curve, poor fit] | –
35 | Cc1ccc2cc(C)c3nnc(SCC(=O)c4cccs4)n3c2c1C | inconclusive [activator, single point] | –
36 | COc1ccc(C)cc1NC(=O)N1CCN(S(=O)(=O)c2ccc3c(ccn3C)c2)CC1 | – | inactive: 5.95%
37 | N#CCSc1nnc(-c2ccccc2)c(-c2ccccc2)n1 | inconclusive [activator, partial curve] | –
38 | Cc1nc(N2N=C(c3ccc(Cl)cc3)CC2c2ccco2)sc1C(=O)N(C)C (configuration not stated) | inconclusive [activator, single point] | –
39 | CCc1ccc(OCC(=O)O/N=C(\N)Cc2ccc([N+](=O)[O-])cc2)cc1 | inconclusive [activator, single point] | –
40 | O=C(CSc1nc2ccccc2c(=O)n1-c1ccc(F)cc1F)NC1CCS(=O)(=O)C1 (configuration not stated) | – | inactive: 4.5%
41 | Cc1ccc(-n2ncc3c(NC4CCCCCC4)ncnc32)cc1 | inconclusive [activator, full curve, poor fit] | –
42 | CCN1C(=O)CSC1=Nc1ccc(C(=O)OC)cc1 | inconclusive [activator, single point] | –
43 | N#CC1=C(N2CCCCC2)c2cc3c(n2C1=O)CCCC3 | active: 14.1 µM | –
44 | CCCCc1nnc(SCc2cc(=O)c3cc(F)ccc3[nH]2)n1C | – | inactive: 13.6%
45 | C=C1C2(C(=O)Nc3nccs3)CCC(C2)C1(C)C (configuration not stated) | active: 12.6 µM | –
46 | Cc1ccc(NC(=O)c2sc3nc(-c4cccs4)ccc3c2N)cc1F | inconclusive [activator, partial curve] | –
47 | CCN(CC)C(=O)c1c(NC(=O)c2cccc(C)c2)sc2c1CCC(C)C2 (configuration not stated) | inconclusive [activator, partial curve] | –
48 | O=C(c1ccc([N+](=O)[O-])cc1)N1CCC(Cc2ccccc2)CC1 | – | inactive: 16.6%

Row | SMILES | Potency | growth rescue (activation)
49 | COc1ccc(OC)c2sc(N3CCN(C(=O)c4ccco4)CC3)nc12 | – | inactive: 13.5%
50 | O=C(CN1C(=O)COc2ccc(S(=O)(=O)NC3CCCC3)cc21)NCc1ccc(Cl)cc1 | – | inactive: 12.5%
51 | O=C(NCc1ccccc1)N[C@@H](Cc1c[nH]c2ccccc12)C(=O)O | inconclusive [activator, partial curve] | –
52 | CCN(CC)CCSc1c(C(C)C)cnc2c1c(=O)n(C)c(=O)n2C | inconclusive [activator, full curve, poor fit] | –
53 | COc1ccc(Cl)cc1C=CC=NNS(=O)(=O)c1ccc(C)cc1 | inconclusive [activator, single point] | –
54 | CC12CCC(C/C1=N\OC(=O)c1ccc(F)cc1)C2(C)C (configuration not stated) | – | inconclusive: -67.7% [activator]
55 | Cc1ccc(-c2nc3ccccc3c(=O)n2Cc2ccccc2)cc1 | inconclusive [activator, single point] | –
56 | COc1ccc(C(=O)N2CCN(c3nc4cc(C)ccc4cc3C#N)CC2)c(OC)c1 | inconclusive [activator, single point] | –
57 | Cc1ccc(N2C(=O)CCSC23C(=O)N(Cc2ccccc2)c2ccccc23)cc1 (configuration not stated) | inconclusive [activator, single point] | –
58 | O=c1ccc(-c2ccccc2)nn1Cc1ccc(Cl)cc1 | active: 20 µM | –
59 | O=C(Nc1nc(-c2nc3ccccc3s2)cs1)C1CC1 | inconclusive [activator, partial curve] | –
60 | CN1CCN(S(=O)(=O)c2ccc(N)cc2)CC1 | inconclusive [activator, full curve, poor fit] | –
61 | CCn1c(CC(=O)Nc2ccc(Cl)cc2)nnc1SCC(=O)N1CCOCC1 | – | inactive: -1.27%
62 | Cc1ccc(C(=O)Nc2ccc3c(c2)nc2n3CCSC2)cc1 | – | inactive: -27.4%
63 | CCN(CC)C(=O)C1=C(C)N(CCCN2CCCC2=O)C(=O)C(CC(=O)NC(c2ccccc2)c2ccccc2)C1 (configuration not stated) | inconclusive [activator, single point] | –
64 | C=C(C)COc1ccc(-c2[nH]ncc2-c2ccccc2)c(O)c1 | inconclusive [activator, single point] | –
65 | CNc1cncc(-c2ccc(OC)cc2OC)n1 | inconclusive [activator, single point] | –
66 | CCC1CCCCN1C(=S)NC(=O)c1cccc([N+](=O)[O-])c1 (configuration not stated) | inconclusive [activator, single point] | –
67 | Clc1ccc(-n2ncc3c(NC4CCCC4)ncnc32)cc1 | inconclusive [activator, full curve] | –
68 | O=C(OCc1c(Cl)cccc1Cl)c1cccnc1 | inconclusive [activator, partial curve] | –
69 | COc1ccc(Nc2ncnc3sc4c(c23)CCCC4)cc1 | active: 20 µM | –
70 | CCc1c(-c2n[nH]c(=S)n2Cc2ccccc2)csc1C | active: 11.2 µM | –
71 | Cc1csc(NC(=O)c2cccn2C)n1 | – | inactive: 6.47%
72 | CCOC(=O)C1CCCN(S(=O)(=O)c2ccc(N3CCCCS3(=O)=O)cc2)C1 (configuration not stated) | – | inactive: 6.75% [at 9.22 µM]
